# Results published in a compilation of properties of binary mixtures (doi:10.1016/j.molliq.2013.09.012).
# The densities may have been worked out from excess volumes.
# Assay: xn = mol fraction of the nth substance listed
# Conditions: 298.15 K, 101 kPa
smiles,measurement,setting,value
CCCN + CCCCCC[n+]1ccn(C)c1.F[B-](F)(F)F,mass density,x1 = 0.1949,1114.6 kg/m3
same,mass density,x1 = 0.2959,1094.8 kg/m3
same,mass density,x1 = 0.3803,1075.2 kg/m3
same,mass density,x1 = 0.5991,1005 kg/m3
same,mass density,x1 = 0.7005,958.3 kg/m3
same,mass density,x1 = 0.8066,894.4 kg/m3
same,mass density,x1 = 1,711 kg/m3
CC(C)(C)O + CCCCCC[n+]1ccn(C)c1.F[B-](F)(F)F,mass density,x1 = 1,781.1 kg/m3
CCCCCC[n+]1ccn(C)c1.F[B-](F)(F)F + CC(C)(C)O,mass density,x2 = 0,1145.2 kg/m3
same,mass density,x2 = 0.1,1129.3 kg/m3
same,mass density,x2 = 0.1449,1121.5 kg/m3
same,mass density,x2 = 0.4008,1066.3 kg/m3
same,mass density,x2 = 0.4992,1038.7 kg/m3
same,mass density,x2 = 0.6009,1005 kg/m3
same,mass density,x2 = 0.7007,965.3 kg/m3
same,mass density,x2 = 0.8983,858.5 kg/m3
